# Test results from the supplement of paper PMC8728848.
# The other results are listed elsewhere or left out.
# B1: mCC1-Hexahis-Precomplexed (Mus musculus), P31809 (protein)
# chain: MELASAHLHKGQVPWGGLLLTASLLASWSPATTAEVTIEAVPPQVAEDNNVLLLVHNLPLALGAFAWYKGNTTAIDKEIARFVPNSNMNFTGQAYSGREIIYSNGSLLFQMITMKDMGVYTLDMTDENYRRTQATVRFHVHPILLKPNITSNNSNPVEGDDSVSLTCDSYTDPDNINYLWSRNGESLSEGDRLKLSEGNRTLTLLNVTRNDTGPYVCETRNPVSVNRSDPFSLNIIYGPDTPIISPSDIYLHPGSNLNLSCHAASNPPAQYFWLINEKPHASSQELFIPNITTNNSGTYTCFVNNSVTGLSRTTVKNITVLEPVTQPFLQVTNTTVKELDSVTLTCLSNDIGANIQWLFNSQSLQLTERMTLSQNNSILRIDPIKREDAGEYQCEISNPVSVRRSNSIKLDIIFDPTQGGLSDGHHHHHH
# What was measured:
# Experiment in all cases: glycan array binding signal (z-score within array); higher = stronger binding
# Settings in all cases: glycan notation: IUPAC condensed, linker removed
# [1] = target: Neu5Ac(a2-6)GlcNAc(b1-4)GlcNAc(b1-4)GlcNAc
# Procedure, shortened: (§1)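 Glycan array binding is given as a within-array Z-score, which can be read as non-binding when negative. The arrays, 3228 of them, came from the Consortium for Functional Glycomics database and were retained only where the protein sequence was available. Z-scores were averaged across arrays of the same protein sequence at different concentrations or buffers and across linkers.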
# [2] = target: Neu5Ac(a2-8)Neu5Ac
# Procedure, shortened: as §1
# [3] = target: Neu5Ac(a2-8)Neu5Ac(a2-3)Gal(b1-3)GalNAc(b1-4)[Neu5Ac(a2-3)]Gal(b1-4)Glc
# Procedure, shortened: as §1
# [4] = target: Neu5Ac(a2-8)Neu5Ac(a2-3)Gal(b1-3)GalNAc(b1-4)[Neu5Ac(a2-8)Neu5Ac(a2-3)]Gal(b1-4)Glc
# Procedure, shortened: as §1
# [5] = target: Neu5Ac(a2-8)Neu5Ac(a2-3)Gal(b1-4)Glc
# Procedure, shortened: as §1
# [6] = target: Neu5Ac(a2-8)Neu5Ac(a2-3)Gal(b1-4)GlcNAc
# Procedure, shortened: as §1
# [7] = target: Neu5Ac(a2-8)Neu5Ac(a2-3)[Gal(b1-3)GalNAc(b1-4)]Gal(b1-4)Glc
# Procedure, shortened: as §1
# [8] = target: Neu5Ac(a2-8)Neu5Ac(a2-3)[GalNAc(b1-4)]Gal(b1-4)Glc
# Procedure, shortened: as §1
# [9] = target: Neu5Ac(a2-8)Neu5Ac(a2-8)Neu5Ac
# Procedure, shortened: as §1
# [10] = target: Neu5Ac(a2-8)Neu5Ac(a2-8)Neu5Ac(a2-3)Gal(b1-4)Glc
# Procedure, shortened: as §1
# [11] = target: Neu5Ac(a2-8)Neu5Ac(a2-8)Neu5Ac(a2-3)[Gal(b1-3)GalNAc(b1-4)]Gal(b1-4)Glc
# Procedure, shortened: as §1
# [12] = target: Neu5Ac(a2-8)Neu5Ac(a2-8)Neu5Ac(a2-3)[GalNAc(b1-4)]Gal(b1-4)Glc
# Procedure, shortened: as §1
# [13] = target: Neu5Ac(a2-8)Neu5Ac(a2-8)Neu5Ac(a2-8)Neu5Ac(a2-3)[GalNAc(b1-4)]Gal(b1-4)Glc
# Procedure, shortened: as §1
# [14] = target: Neu5Ac(a2-8)Neu5Gc(a2-3)Gal(b1-4)GlcNAc
# Procedure, shortened: as §1
# [15] = target: Neu5Ac(b2-6)Gal(b1-4)GlcNAc
# Procedure, shortened: as §1
# [16] = target: Neu5Ac(b2-6)GalNAc
# Procedure, shortened: as §1
# [17] = target: Neu5Ac9Ac(a2-3)Gal(b1-4)GlcNAc
# Procedure, shortened: as §1
# [18] = target: Neu5Ac9Ac(a2-6)Gal(b1-4)GlcNAc
# Procedure, shortened: as §1
# [19] = target: Neu5Gc(a2-3)Gal(b1-3)GlcNAc
# Procedure, shortened: as §1
# [20] = target: Neu5Gc(a2-3)Gal(b1-3)[Fuc(a1-4)]GlcNAc
# Procedure, shortened: as §1
# [21] = target: Neu5Gc(a2-3)Gal(b1-4)Glc
# Procedure, shortened: as §1
# [22] = target: Neu5Gc(a2-3)Gal(b1-4)GlcNAc
# Procedure, shortened: as §1
# [23] = target: Neu5Gc(a2-3)Gal(b1-4)GlcNAc(b1-3)Gal(b1-4)GlcNAc(b1-2)Man(a1-3)[Neu5Gc(a2-3)Gal(b1-4)GlcNAc(b1-3)Gal(b1-4)GlcNAc(b1-2)Man(a1-6)]Man(b1-4)GlcNAc(b1-4)GlcNAc
# Procedure, shortened: as §1
# [24] = target: Neu5Gc(a2-3)Gal(b1-4)[Fuc(a1-3)]GlcNAc
# Procedure, shortened: as §1
# [25] = target: Neu5Gc(a2-6)Gal(b1-4)GlcNAc
# Procedure, shortened: as §1
# [26] = target: Neu5Gc(a2-6)GalNAc
# Procedure, shortened: as §1
# [27] = target: Neu5Gc(a2-8)Neu5Ac(a2-3)Gal(b1-4)GlcNAc
# Procedure, shortened: as §1
# [28] = target: Neu5Gc(a2-8)Neu5Gc(a2-3)Gal(b1-4)GlcNAc
# Procedure, shortened: as §1
# [29] = target: Neu5Gc(a2-8)Neu5Gc(a2-3)Gal(b1-4)GlcNAc(b1-3)Gal(b1-4)GlcNAc
# Procedure, shortened: as §1
# [30] = target: Neu5Gc(a2-8)Neu5Gc(a2-6)Gal(b1-4)GlcNAc
# Procedure, shortened: as §1
# [31] = target: Neu5Gc(b2-6)Gal(b1-4)GlcNAc
# Procedure, shortened: as §1
binder,measurement,setting,value
B1,glycan array binding signal (z-score),[1],-0.214
same,glycan array binding signal (z-score),[2],-0.252
same,glycan array binding signal (z-score),[3],-0.169
same,glycan array binding signal (z-score),[4],-0.186
same,glycan array binding signal (z-score),[5],-0.171
same,glycan array binding signal (z-score),[6],-0.242
same,glycan array binding signal (z-score),[7],-0.097
same,glycan array binding signal (z-score),[8],-0.146
same,glycan array binding signal (z-score),[9],-0.105
same,glycan array binding signal (z-score),[10],-0.176
same,glycan array binding signal (z-score),[11],-0.04
same,glycan array binding signal (z-score),[12],1.04
same,glycan array binding signal (z-score),[13],0.057
same,glycan array binding signal (z-score),[14],-0.232
same,glycan array binding signal (z-score),[15],-0.047
same,glycan array binding signal (z-score),[16],-0.179
same,glycan array binding signal (z-score),[17],0.497
same,glycan array binding signal (z-score),[18],-0.267
same,glycan array binding signal (z-score),[19],-0.164
same,glycan array binding signal (z-score),[20],-0.118
same,glycan array binding signal (z-score),[21],-0.245
same,glycan array binding signal (z-score),[22],-0.213
same,glycan array binding signal (z-score),[23],-0.031
same,glycan array binding signal (z-score),[24],-0.274
same,glycan array binding signal (z-score),[25],-0.149
same,glycan array binding signal (z-score),[26],-0.227
same,glycan array binding signal (z-score),[27],-0.001
same,glycan array binding signal (z-score),[28],-0.133
same,glycan array binding signal (z-score),[29],-0.208
same,glycan array binding signal (z-score),[30],-0.191
same,glycan array binding signal (z-score),[31],-0.133
